Data as given in ChEMBL document CHEMBL1201862, “PubChem BioAssay data set” (2004).
Values joined by “and” are separate entries in the source; they are usually repeats but may differ in a detail not shown here. Equal values may be shown once.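 Each compound was tested at five concentrations against cells in 96-well plates for 48 hours. GI50: concentration for 50% inhibition of growth.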 Active and inactive are the calls of the source. Cut-off read from the data, not from the text of the source: active = GI50 up to about 1.1 µM and inactive = higher.

Tested on: NCI-H322M
Assay: growth of human tumour cells (NCI), 48 h

Structure (SMILES)	GI50
O=C(NCCN(CCNC(=O)c1cccc(O)c1O)CCNC(=O)c1cccc(O)c1O)c1cccc(O)c1O [TRENCAM]	inactive: 10.7 µM
COc1ccccc1-c1cc(O)c2ccc(C)nc2n1	inactive: > 100 µM
COc1ccc(/C=C2\C[C@H]3[C@@H]4CCC5=CC(=O)CC[C@]5(C)[C@H]4CC[C@]3(C)C2=O)cc1OC	inactive: 24.3 µM
CCOC(=O)c1ccc(NC2Oc3cc4c(cc3C(c3cc(OC)c(OC)c(OC)c3)C2C)OCO4)cc1 (stereo unspecified)	active: 0.543 µM
CN(C)CCNC(=O)c1cccc2ccc(-c3ccc(-c4ccccc4)cc3)nc12	inactive: 12.3 µM
COC(=O)[C@]1(c2cc3ccccc3n2S(=O)(=O)c2ccccc2)CC2CCC1NC2 (stereo partly specified)	inactive: 15.5 µM
CSc1cc(Cl)c(C)cc1S(=O)(=O)NC(=O)NNc1ccc(F)c(Cl)c1	inactive: > 100 µM
COC1=CC(=O)c2ccccc2C1(C)C1=NC(C)(C)CO1 (stereo unspecified)	inactive: > 100 µM
c1ccc2c(c1)OCCOCCOc1ccccc1OCCO2	inactive: > 100 µM
S=C(NN=C1NCCCCN1)Nc1ccc(Cl)cc1	inactive: 29.3 µM
CCNC(=O)O/N=C1/C=C2CC[C@@H]3C(CC[C@@]4(C)C3CC[C@@H]4OC(=O)NCC)[C@@]2(C)CC1 (stereo partly specified)	inactive: 4.55 µM
CCOC(=O)c1[nH]cc(C)c1-c1cccn1-c1ccc(Cl)cc1[N+](=O)[O-]	inactive: 37.3 µM
COC(=O)c1cc2c(cc1CC(Cc1ccc3c(c1)CCC3)C(=O)OC)CCC2 (stereo unspecified)	inactive: > 100 µM
O=c1c2ccccc2sc2nc(O)nn12	inactive: > 100 µM
NN/C(=N\S(=O)(=O)c1cc2ccccc2o1)Nc1ccc(Cl)cc1	inactive: > 100 µM
CC[C@@]1(O)C(=O)OCc2c1cc1n(c2=O)Cc2c-1nc1ccccc1c2/C=N/NC(=O)C[N+](C)(C)C	inactive: 19.7 µM
CC(=O)Nc1ccc(/C=C(\NC(=O)c2ccccc2)C(=O)NNS(=O)(=O)c2ccc(C)cc2)cc1	inactive: > 100 µM
CC(C)=CCc1cc(C2COc3cc4c(c(O)c3C2=O)C=CC(C)(C)O4)c(O)cc1O (stereo unspecified)	inactive: 16.5 µM
COc1ccc(C(=O)CC(c2ccc(OC)c(OC)c2)c2c(O)oc3ccccc3c2=O)cc1OC (stereo unspecified)	inactive: > 100 µM
O=C(CCc1cc(O)cc(O)c1)NCCc1cc(O)cc(OCc2ccccc2)c1	inactive: 43.6 µM
CC(=O)OCC1C(C(C)OC(C)=O)CCC2C1CCC1(C)C(OC(C)=O)CCC21 (stereo unspecified)	inactive: 17.9 µM
C/C=C(/C)C(=O)O[C@H]1CCN2CC=C(COC(=O)[C@@](O)([C@H](C)OC)C(C)(C)O)[C@H]12	inactive: > 100 µM
Cc1c(-c2ccc(-c3ccccc3F)cc2)nc2ccc(F)cc2c1C(=O)O [BREQUINAR SODIUM]	inactive: 15.2 µM

Structure (SMILES)	GI50
COc1ccc2nc3n(c2c1)CCc1cc(OC)c(OC)cc1-3	inactive: 50.4 µM
N#CC1(C#N)[C@@H]2CCC=C(Sc3ccccc3)[C@@H]21	inactive: 18.5 µM
CCn1c2ccccc2c2ccc(C3C4C(=O)N(c5cccc6ccccc56)C(=O)C4ON3C(C(N)=O)c3ccccc3)cc21 (stereo unspecified)	inactive: 23.1 µM
CC[n+]1[b-](C(C)(C)C)n(/N=C(\C)C(C)(C)C)[b-](C(C)(C)C)[n+]1CC	inactive: > 100 µM
c1sc(NC2=NCCO2)c2c1CCCC2	inactive: > 100 µM
CC1(C)S[C@@H]2[C@H](NC(=O)CCC[C@@H](N)C(=O)O)C(=O)N2[C@H]1C(=O)O [ADICILLIN]	inactive: > 50 µM
O=c1ccc2ccc(OP(=O)(O)O)cc2o1	inactive: > 100 µM
CCN(CC)C(=S)SCC(=O)Nc1nc2c(s1)CCCC2	inactive: > 100 µM
CNC=O	inactive: > 10000 µM
CC12CCC(C(Br)(Br)C1=O)C2(C)C (stereo unspecified)	inactive: 8.99 µM
O=C(Nc1cc(Cl)ccc1Cl)c1cc2cccc(Cl)c2oc1=O	inactive: > 100 µM
COC(=O)NN=C1C(C)(C)C(=NNC(=O)OC)C1(C)C	inactive: > 100 µM
Cc1c2cc[n+]([O-])cc2c(C)c2c1[nH]c1ccccc12	inactive: 7.24 µM
O=C(CSc1nnc(Cc2ccccc2)o1)Nc1ccc(Cl)cc1Cl	inactive: > 100 µM
COc1cccc([C@H]2CC(=O)c3cc4c(cc3N2)OCO4)c1	active: 0.537 µM
CC1OC(=O)N(CCCC=C2SCCCS2)C1=O (stereo unspecified)	inactive: > 100 µM
CC1CCCCN1CC(=O)c1ccc2c(c1)Sc1ccccc1O2 (stereo unspecified)	inactive: 13.6 µM
CC(=O)NC1(C(=O)N[C@@H](Cc2ccccc2)C(=O)NC2CCCCC2)Cc2ccc3ccccc3c2-c2c(ccc3ccccc23)C1	inactive: 70.5 µM and inactive: 44.8 µM
O/N=C(\CC(O)(C(F)(F)F)C(F)(F)F)c1cccs1	inactive: > 10 µM
Clc1ncc(C(Cl)(Cl)Cl)nc1-c1ccccc1	inactive: 1.8 µM
C(=C\c1cc(CCc2nc3ccccc3[nH]2)n[nH]1)/c1ccccc1	inactive: > 100 µM
CCOC(=O)CCC(NC(=O)c1ccc(Oc2nc3ccc(C(F)(F)F)cc3nc2-c2ccccc2)cc1)C(=O)OCC (stereo unspecified)	inactive: 48.3 µM
COc1cc(OC)c2c(c1)OC(c1ccccc1)CC2=O (stereo unspecified) [DIMETHYLPINOCEMBRIN]	inactive: > 10 µM
